Whole data set: some 33,000 sequences, median “E-score (-0.5 to 0.5)” near -0.036, cut for the highest 2% near 0.37. The list shows a part of the results.
Target: T1, Yer064c (UniProt P40041)
T1 sequence: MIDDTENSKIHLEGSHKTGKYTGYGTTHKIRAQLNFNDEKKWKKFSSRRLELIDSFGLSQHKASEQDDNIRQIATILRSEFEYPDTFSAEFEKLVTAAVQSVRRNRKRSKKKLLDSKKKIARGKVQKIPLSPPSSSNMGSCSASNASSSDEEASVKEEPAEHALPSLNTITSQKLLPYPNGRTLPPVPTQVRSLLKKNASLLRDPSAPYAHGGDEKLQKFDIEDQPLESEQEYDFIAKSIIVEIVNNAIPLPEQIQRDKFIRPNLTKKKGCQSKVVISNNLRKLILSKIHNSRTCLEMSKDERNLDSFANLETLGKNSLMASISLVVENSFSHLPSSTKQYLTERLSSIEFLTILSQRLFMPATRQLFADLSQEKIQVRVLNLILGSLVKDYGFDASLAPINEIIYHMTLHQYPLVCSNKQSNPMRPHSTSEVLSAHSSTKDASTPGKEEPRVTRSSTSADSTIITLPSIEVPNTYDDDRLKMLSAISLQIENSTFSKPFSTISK
Assay: PBM E-score (8-mer binding enrichment) (E-score (-0.5 to 0.5)); higher = stronger / more preferred TF binding; most listed sequences are background and not binding sites
Details: protein concentration: 200 nM; construct: GST-full length
In short: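 Using PURExpress in vitro transcription/translation, GST-tagged yeast transcription factors were made in full-length or DNA-binding-domain form. These were applied at about 100-200 nM to double-stranded universal all-10-mer Agilent arrays, and bound protein was detected with fluorescent anti-GST. Scans were normalised with masliner before the Universal PBM Analysis Suite assigned E-scores to ungapped eight-base words pooled with their reverse complements.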

Sequence	PBM E-score
GCGACCCC	-0.237
AAGAATAG	0.0215
AATGGAAC	0.0414
ACCAGAGC	0.0188
CTACATGC	-0.0926
AAGGAGCT	-0.0608
GTCGTATA	0.226
ACGGCAAG	-0.0123
ATCTGGCA	-0.118
CCAGACGA	-0.0439
ACTTGGAA	0.0773
AATGCCAC	-0.0486
AACAGACG	-0.277
AAACTTCG	-0.259
GCAAAGAC	0.081
GCATTCAC	-0.0705
ACATCGGC	-0.193
AAGAATAA	0.0152
ACAATAGT	0.122
CATCGGAG	0.0629
CTGATCAA	0.135
CTGCAAGC	-0.191
CCAGCAGA	-0.111
GAATAGAC	-0.0209
CCAAAAGG	-0.136

Sequence	PBM E-score
GTTGATCA	0.162
ACATAATA	-0.0511
CCTCAATC	0.206
ACTGATGA	0.217
GAAACCGA	-0.137
GTGGGTGA	0.194
AATCTAGG	0.0277
AGCGTGTA	-0.0072
ACAGTGTG	0.0397
GGAATTCA	-0.0346
ACAAAACT	-0.0935
CAAAAGCG	0.0551
TGACCTCA	-0.00196
CACGGGGG	-0.17
GGAGTACA	0.129
CAATGCTG	0.00624
CTTGGCAA	-0.0407
AATTAAGT	0.0867
CAGATCTG	-0.263
AATTCAGA	0.0103
CGACAAAC	-0.0358
ACTGGAGC	-0.168
CGTCGTAC	-0.0504
GGCACGAA	-0.125
CCACGCTC	-0.308

Sequence	PBM E-score
ACAATGAG	0.138
CTTCACAA	-0.143
ATCGACAC	-0.163
ACGGTGAC	0.254
GCGAAGTA	-0.14
CACGGTGG	0.0291
ACCGGGGC	-0.164
AAGCGGAC	-0.104
CGAGAAAC	-0.0973
GACCGCGC	-0.229
ATTCGCTG	0.107
AACCGCTT	0.0842
ATCGGGAG	0.0774
AGGGCCCG	-0.161
TACCATGA	0.131
ACAGACAT	0.0189
ACGTTTGC	-0.0766
ACCAATCA	0.243
GTCTTTCA	0.0314
ACACTTTA	-0.0437
CAATTAGC	0.0733
CCGTCATA	0.0861
CTGATAAG	0.0612
ACTAACTC	0.297
ACGTCGAT	-0.0197

Sequence	PBM E-score
CCACGCCC	-0.379
CCCCCACA	-0.204
ATTCTCCA	-0.0149
AGACGGGA	-0.0599
ACTTGTCT	-0.0145
CTGCCGAC	0.115
CCCCGGAA	-0.0848
CAACCTGG	-0.153
AAATCAGA	0.158
ACATAAAA	0.0977
ATCTTTCG	0.0434
AACAGTGG	-0.153
CCTACCCC	-0.249
GATAGTAC	0.0862
GAGGTTTA	-0.0754
GTAATAAC	0.0905
CAGGCACA	-0.18
CTAGATGA	0.109
AGAGGTGC	-0.25
GTGCTGGA	-0.152
ATGCCGGC	-0.309
ACGCTAAC	0.0718
GCGACCGC	-0.221
GCAAGATA	-0.0351
CCTGTGGA	-0.0777

Sequence	PBM E-score
ACCCCGCG	-0.302
CCCCCAAC	-0.22
GTAGCAGA	-0.0296
TAGAACCA	0.0965
AAGGAAGC	-0.368
GACGCCAC	-0.268
ATCGGACC	-0.118
ATTTAGAG	0.219
AAGCGTTA	-0.101
CAATTTGC	-0.213
GCCCTTCC	-0.402
AGTGAGTC	0.474
ACCTCAGT	0.173
AGCAGTGA	0.195
AGGGTCGA	0.0119
CCTCAAAG	-0.0817
ATGGTGGA	-0.108
AACTGTCT	-0.0512
CCGTTTAG	0.0178
ATATGCAG	0.196
GCTGGTCA	0.00078
AGTCTACA	0.272
CAACTGTG	-0.0385
AGGGGGCG	-0.31
AGTTCAAC	-0.0156

Sequence	PBM E-score
CATTAGGC	-0.181
ATACTCAA	0.239
CTCCAACA	-0.0127
CATACGAC	0.158
CATGCCGA	0.049
AGCGCTAA	0.0694
CTCTATAC	-0.0811
ACCGTTTA	-0.11
ATTAGTGG	0.11
AAGTTAAG	-0.145
TAATACGA	0.129
TCTAGAAA	0.156
CAATCCCC	-0.152
AGACCTAA	0.0162
GATATGAC	0.303
AAATACAG	-0.123
GGACTCCC	0.214
AATGTGGT	0.0567
AATAACCC	-0.084
TAACAAGA	0.149
CGGACTCA	0.411
AATTCGCT	0.0169
ATGCAGTG	0.0989
AGCGTGAG	0.14
AGGGCTTA	-0.259

Sequence	PBM E-score
ACCTTCCA	-0.123
ACGACCTA	0.0951
CGTCACTC	-0.0803
TCACGCAA	0.166
AGGGGCTA	-0.0794
CGTGCCAA	-0.09
CCCTGTTA	-0.0361
GGCGGCAC	-0.241
GAGCTGTA	-0.0312
AGTGGTGG	-0.0709
AAATAAAT	0.129
CATGTGCG	0.0118
TATAGATA	0.0868
CTGGGTCA	0.0445
ACCTATAC	-0.00407
ATTGTAAA	0.158
ATTCAACG	0.128
ATGGACTC	0.317
GGGGCAAC	-0.107
ATACTTAG	0.141
GGCCTGCA	-0.221
AGTTTTCG	-0.105
